This is one part of the list.
Legend:
Experiment in all cases: glycan array binding signal (z-score within array); higher = stronger binding
Settings in all cases: glycan notation: IUPAC condensed, linker removed
[1] = molecular target: Gal(b1-3)GlcNAc(b1-6)Gal(b1-4)GlcNAc
Method in brief: (§1)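 Glycan array data were curated from 3228 arrays in the Consortium for Functional Glycomics database and kept only where the protein sequence was available. Glycan names were converted to IUPAC-condensed notation, and columns mapping to the same glycan were averaged. The binding signal is a within-array Z-score, averaged across arrays of the same protein sequence at different concentrations or buffers and across linkers. Negative Z-scores can be read as non-binding.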

[2] = molecular target: Gal(b1-3)GlcNAc(b1-6)GalNAc
Method in brief: as §1

[3] = molecular target: Gal(b1-3)GlcNAc(b1-6)[Gal(b1-3)]GalNAc
Method in brief: as §1

[4] = molecular target: Gal(b1-3)GlcNAc6S
Method in brief: as §1

[5] = molecular target: Gal(b1-3)[Fuc(a1-4)]GlcNAc
Method in brief: as §1

[6] = molecular target: Gal(b1-3)[Fuc(a1-4)]GlcNAc(b1-2)Man
Method in brief: as §1

[7] = molecular target: Gal(b1-3)[Fuc(a1-4)]GlcNAc(b1-2)Man(a1-3)[Gal(b1-3)[Fuc(a1-4)]GlcNAc(b1-2)Man(a1-6)]Man(b1-4)GlcNAc(b1-4)GlcNAc
Method in brief: as §1

[8] = molecular target: Gal(b1-3)[Fuc(a1-4)]GlcNAc(b1-2)Man(a1-3)[Gal(b1-3)[Fuc(a1-4)]GlcNAc(b1-2)Man(a1-6)]Man(b1-4)GlcNAc(b1-4)[Fuc(a1-6)]GlcNAc
Method in brief: as §1

[9] = molecular target: Gal(b1-3)[Fuc(a1-4)]GlcNAc(b1-3)Gal(b1-3)[Fuc(a1-4)]GlcNAc
Method in brief: as §1

[10] = molecular target: Gal(b1-3)[Fuc(a1-4)]GlcNAc(b1-3)Gal(b1-4)GlcNAc
Method in brief: as §1

[11] = molecular target: Gal(b1-3)[Fuc(a1-4)]GlcNAc(b1-3)Gal(b1-4)[Fuc(a1-3)]GlcNAc
Method in brief: as §1

[12] = molecular target: Gal(b1-3)[Fuc(a1-4)]GlcNAc(b1-6)GalNAc
Method in brief: as §1

[13] = molecular target: Gal(b1-3)[GlcNAc(b1-6)]GalNAc
Method in brief: as §1

[14] = molecular target: Gal(b1-3)[Neu5Ac(a2-6)]GalNAc
Method in brief: as §1

[15] = molecular target: Gal(b1-3)[Neu5Ac(a2-6)]GlcNAc(b1-4)Gal(b1-4)Glc
Method in brief: as §1

[16] = molecular target: Gal(b1-3)[Neu5Ac(a2-6)]GlcNAc(b1-6)Gal(b1-4)Glc
Method in brief: as §1

[17] = molecular target: Gal(b1-3)[Neu5Ac(b2-6)]GalNAc
Method in brief: as §1

[18] = molecular target: Gal(b1-4)Gal
Method in brief: as §1

[19] = molecular target: Gal(b1-4)GalNAc(a1-3)[Fuc(a1-2)]Gal(b1-4)GlcNAc
Method in brief: as §1

[20] = molecular target: Gal(b1-4)GalNAc(b1-3)[Fuc(a1-2)]Gal(b1-4)GlcNAc
Method in brief: as §1

[21] = molecular target: Gal(b1-4)Glc
Method in brief: as §1

[22] = molecular target: Gal(b1-4)Glc6S
Method in brief: as §1

[23] = molecular target: Gal(b1-4)GlcNAc
Method in brief: as §1

[24] = molecular target: Gal(b1-4)GlcNAc(a1-6)Gal(b1-4)GlcNAc
Method in brief: as §1

[25] = molecular target: Gal(b1-4)GlcNAc(b1-2)Man
Method in brief: as §1

[26] = molecular target: Gal(b1-4)GlcNAc(b1-2)Man(a1-3)Man(b1-4)GlcNAc(b1-4)GlcNAc
Method in brief: as §1

[27] = molecular target: Gal(b1-4)GlcNAc(b1-2)Man(a1-3)[Gal(b1-4)GlcNAc(b1-2)Man(a1-6)]Man(b1-4)GlcNAc(b1-4)GlcNAc
Method in brief: as §1

[28] = molecular target: Gal(b1-4)GlcNAc(b1-2)Man(a1-3)[Gal(b1-4)GlcNAc(b1-2)Man(a1-6)]Man(b1-4)GlcNAc(b1-4)[Fuc(a1-6)]GlcNAc
Method in brief: as §1

[29] = molecular target: Gal(b1-4)GlcNAc(b1-2)Man(a1-3)[Gal(b1-4)GlcNAc(b1-2)Man(a1-6)][Gal(b1-4)GlcNAc(b1-4)]Man(b1-4)GlcNAc(b1-4)[Fuc(a1-6)]GlcNAc
Method in brief: as §1

[30] = molecular target: Gal(b1-4)GlcNAc(b1-2)Man(a1-3)[Gal(b1-4)GlcNAc(b1-2)Man(a1-6)][GlcNAc(b1-4)]Man(b1-4)GlcNAc(b1-4)[Fuc(a1-6)]GlcNAc
Method in brief: as §1

[31] = molecular target: Gal(b1-4)GlcNAc(b1-2)Man(a1-3)[Gal(b1-4)GlcNAc(b1-2)][GlcNAc(b1-4)]Man(b1-4)GlcNAc(b1-4)GlcNAc
Method in brief: as §1

[32] = molecular target: Gal(b1-4)GlcNAc(b1-2)Man(a1-3)[GlcNAc(b1-2)Man(a1-6)]Man(b1-4)GlcNAc(b1-4)GlcNAc
Method in brief: as §1

[33] = molecular target: Gal(b1-4)GlcNAc(b1-2)Man(a1-3)[GlcNAc(b1-4)][Gal(b1-4)GlcNAc(b1-2)Man(a1-6)]Man(b1-4)GlcNAc(b1-4)GlcNAc
Method in brief: as §1

[34] = molecular target: Gal(b1-4)GlcNAc(b1-2)Man(a1-3)[Man(a1-6)]Man(b1-4)GlcNAc(b1-4)GlcNAc
Method in brief: as §1

[35] = molecular target: Gal(b1-4)GlcNAc(b1-2)Man(a1-6)Man(b1-4)GlcNAc(b1-4)GlcNAc
Method in brief: as §1

[36] = molecular target: Gal(b1-4)GlcNAc(b1-2)Man(a1-6)[GlcNAc(b1-2)Man(a1-3)]Man(b1-4)GlcNAc(b1-4)GlcNAc
Method in brief: as §1

[37] = molecular target: Gal(b1-4)GlcNAc(b1-2)Man(a1-6)[Man(a1-3)]Man(b1-4)GlcNAc(b1-4)GlcNAc
Method in brief: as §1

[38] = molecular target: Gal(b1-4)GlcNAc(b1-2)[Gal(b1-4)GlcNAc(b1-4)]Man(a1-3)[Gal(b1-4)GlcNAc(b1-2)Man(a1-6)]Man(b1-4)GlcNAc(b1-4)GlcNAc
Method in brief: as §1

B1: rAAL-2 (Agrocybe aegerita) (protein)
chain: MTSNVITQDLPIPVASRGFADIVGFGLDGVVIGRNAVNLQPFLAVKNFAQNAGGWLTTKHVRLIADTTGTGKGDIVGFGNAGVYVSVNNGKNTFADPPKMVIANFGYDAGGWRVEKHLRYLADIRKIGRADIIGFGEKGVLVSRNNGGLNFGPATLVLKDFGYDAGGWRLDRHLRFLADVTGNGHLDIVGFGDKHVFISRNNGDGTFAPAKSVIDNFCIDAGGWKIGDHPRFVADLTGDGTADIIGCGKAGCWVALNNGGGVFGQVKLVINDFGTDKGWQAAKHPRFIADLTGNGRGDVVGFGNAGVYVALNNGDGTFQSAKLVLKDFGVQQGWTVSKHRRFVVDLTGDGCADIIGFGEKETLVSYNDGKGNFGPVKALTNDFSFSGGKWAPETTVCWMANLDSSRH
glycan array binding signal (z-score) [1]: -0.337
glycan array binding signal (z-score) [2]: -0.261
glycan array binding signal (z-score) [3]: -0.398
glycan array binding signal (z-score) [4]: -0.131
glycan array binding signal (z-score) [5]: -0.212
glycan array binding signal (z-score) [6]: 1
glycan array binding signal (z-score) [7]: -0.186
glycan array binding signal (z-score) [8]: -0.017
glycan array binding signal (z-score) [9]: -0.328
glycan array binding signal (z-score) [10]: -0.246
glycan array binding signal (z-score) [11]: -0.404
glycan array binding signal (z-score) [12]: -0.064
glycan array binding signal (z-score) [13]: -0.212
glycan array binding signal (z-score) [14]: -0.18
glycan array binding signal (z-score) [15]: -0.326
glycan array binding signal (z-score) [16]: -0.269
glycan array binding signal (z-score) [17]: -0.279
glycan array binding signal (z-score) [18]: -0.213
glycan array binding signal (z-score) [19]: -0.033
glycan array binding signal (z-score) [20]: -0.327
glycan array binding signal (z-score) [21]: -0.135
glycan array binding signal (z-score) [22]: -0.155
glycan array binding signal (z-score) [23]: -0.135
glycan array binding signal (z-score) [24]: -0.315
glycan array binding signal (z-score) [25]: -0.16
glycan array binding signal (z-score) [26]: -0.126
glycan array binding signal (z-score) [27]: -0.327
glycan array binding signal (z-score) [28]: -0.267
glycan array binding signal (z-score) [29]: -0.282
glycan array binding signal (z-score) [30]: -0.482
glycan array binding signal (z-score) [31]: -0.266
glycan array binding signal (z-score) [32]: -0.269
glycan array binding signal (z-score) [33]: -0.61
glycan array binding signal (z-score) [34]: -0.217
glycan array binding signal (z-score) [35]: -0.233
glycan array binding signal (z-score) [36]: -0.177
glycan array binding signal (z-score) [37]: -0.355
glycan array binding signal (z-score) [38]: -0.261
